In the supplement of paper PMC11417369:
This is one part of the list.

These sequences were tested on PfSIP2 AP2 domain 1 (GST-tagged) (assay: gcPBM binding intensity (ln(normalized median fluorescence intensity)); higher = stronger DNA binding).
How it was run: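 Plasmodium falciparum DNA-binding domains carrying a GST tag were expressed in E. coli and applied for 1 h, at about 25 μg on average, to an Agilent 4 × 180k array. The array held primer-extended double-stranded 36-bp intergenic genomic probes together with negative controls, and binding took place in 1× PBS with 1% milk, 0.2 mg/ml BSA, 0.5% salmon testes DNA and 0.03% Triton X-100. An Alexa488 anti-GST antibody detected bound protein, and the array was scanned at 488 nm. Binding intensity is taken as the highest Masliner-normalised natural-log median intensity across replicate spots of either probe orientation.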

| Sequence | gcPBM binding intensity (ln) |
| --- | --- |
| GAATAATATATATGTTCACACATGGTCTTTATTATA [CACACA_site5457] | 6.91 |
| GTTATATAAACATATGCATGTGAAGTGTTTATTAAT [TGCATGCA_site183] | 6.9 |
| TATATATATATAATTGCACACATCAAGTTTGATGTT [CACACA_site1288] | 8.97 |
| GTTGTATACAATAATGTGCACATATTAATTTGAACT | 8.78 |
| AAATGTACAGGACGCACACACATATTTATATTTATA [CACACA_site7689] | 7.12 |
| TTTTTTTTTCCTTTTTTTTAAATATTAAAAATGGGA [TGCATGCA_negctrl_site494] | 6.91 |
| CTTATTTACTATTTTTCACACATTACAGATAAACAA [CACACA_site6095] | 7.33 |
| TAAGTTTTGTTTTTTTGTACTCATTCATACTATCAT [XGTACX_site3638] | 7.2 |
| TAAATATATATATATAGTACAATATAATTATGATAT [XGTACX_site258] | 7.24 |
| TCATTGAAAAAAATCTGTACTGACTATATAGTTGCA [XGTACX_site1566] | 6.76 |
| GCTTAATACAGAATAACACACAAAATAAATAAATAA [CACACA_site4041] | 7.06 |
| TTTTTTTTTTTTTTTGCACACTTAAATTTGGTGGCT [CACACA_site5319] | 7.56 |
| CATATAATAAATAATTGTACTTGATATAATATTATG [XGTACX_site3562] | 6.91 |
| TTGGCTATAGCCAATTGTACTTTTTCTCTTTGGCTT [XGTACX_site1119] | 7.07 |
| GACATATATACCAAACGTACATATGTGCAAGCATAA [XGTACX_site3089] | 7.21 |
| TCTTGATTAACTTAAAAAAAAAAAAAAAAAAAAAAA [CACACA_negctrl_site458] | 6.89 |
| TATATTTGTGCGTGTACACATTTGAAAAAATATATA [CACACA_site5079] | 7.6 |
| ATAAATTATAATAACTGTACAAAAATAATATATTCA [XGTACX_site1856] | 6.93 |
| AATAATAATAAAAAGGTGCTGAAATATTTTTATTAT [GTGCAC_site9763] | 8.38 |
| TATATAATTATTTTTTGTACTCATAATAATATGAAA [XGTACX_site289] | 7.23 |
| ATATGTACAAAATAAGCACACACAAAAAAAAAAAAA [CACACA_site8984] | 7.2 |
| AAAAAAAAAAAAAATATATATATATATATATATATA [CACACA_negctrl_site540] | 9.76 |
| TTTTTTTTTTTTTTTTGTACATAAATTTTTATTAGA [XGTACX_site6409] | 6.96 |

| Sequence | gcPBM binding intensity (ln) |
| --- | --- |
| TATGAGAAAAAAAGTACATGCACAAAATGTATATGT [TGCATGCA_site789] | 7.3 |
| CAACATTGTTCCTATTGTACATGAACTGTTCATACG [XGTACX_site4070] | 6.77 |
| ATTATATAAACCAAATGTACAAAAAGGTCGTAGTGG [XGTACX_site1298] | 7.19 |
| ATTATTAAGGTTTATTCAAAAAAGACGTTTTTAAAT [CACACA_negctrl_site1059] | 6.75 |
| AGACACGTATACGATGCACACGTATGCTTTATATAT [CACACA_site9363] | 7.73 |
| TATAATGATGATGATAGTACGTATGAGTAAGAAAAA [XGTACX_site31] | 7.37 |
| ATAAAAATATTTATTACACACATAAGCAAAAAAAAA [CACACA_site3484] | 6.93 |
| TATTTTTATTTTTAAACCATATATATATATATATAT [CACACA_negctrl_site1560] | 9.44 |
| TATAGTTTCATTCTTTGTACATATATATTATTATTA [XGTACX_site8527] | 7.17 |
| AATGTGCAAACAAACTGTACTTTTTTTTTTTTTTTT [XGTACX_site928] | 7.84 |
| AGATTTATTCATTCATGTACTTATTTATTTTATTTT [XGTACX_site6702] | 7.02 |
| AATAATAATGCTTTAACTTTGTTGTTATTTAGAATA [CACACA_negctrl_site1144] | 6.6 |
| TATAAATAAAAGTGTACACACATTAAAATCAAACGT [CACACA_site5316] | 7.19 |
| CATACATATATACATACACACACATATAACCAATGT [CACACA_site8679] | 7.28 |
| TTTGTATTACGTTTGTGTACATATACAATGTGTTTT [XGTACX_site7708] | 7.03 |
| TCCATGCATTGACACACACACAAAAAAAAATTCTTT [CACACA_site7847] | 7.15 |
| TTTATTTATTTATGGACACACATACAAATCTTCCAG [CACACA_site4676] | 7.03 |
| AAACGTGTGTATAATAGTACATAATTATAACGTAAT [XGTACX_site421] | 6.99 |
| CGTATTTTTGGACATGCATGTACAAATAATCTTATG [TGCATGCA_site973] | 7.32 |
| AAATTTGGCAAACACACACACACACCCACAGAGACA [CACACA_site4490] | 7.28 |
| ATATATGGAGCTTATACACACTTTTATATTTTAACA [CACACA_site7757] | 6.99 |
| TTGGGCATAATGTCATGTACACAAATAATTCTTTAT [XGTACX_site861] | 7 |
| TAAGTTTTGTTCTTTTGTACATATAAGTATAGATCG [XGTACX_site4735] | 6.9 |

| Sequence | gcPBM binding intensity (ln) |
| --- | --- |
| AATGTTTTTGTGAGATGTATAAATTTTATTTTATTT [XGTACX_negctrl_site413] | 6.97 |
| AAAAAAATAATGTACACACACATATAGGTTTATATA [CACACA_site192] | 6.96 |
| TTATAATAAATATTCATATGTTCAAATATATATATA [CACACA_negctrl_site624] | 8.87 |
| TTTATTTATTATTATGTACACACTATATTAAAACAT [CACACA_site700] | 7.23 |
| TATAGATTTATATACACATGCATTTTGGTAAAGAAA [TGCATGCA_site953] | 7.09 |
| AAATATATTTCTTTTTTTCTTATTATTAATTTGCTT [CACACA_negctrl_site1483] | 6.75 |
| ATTGTAAGTAGACACACACACATATAGATGTATATA [CACACA_site6463] | 7.16 |
| TATTTTTTTAATAACTGTACTTTTTTGTCAAATGGA [XGTACX_site4179] | 7.14 |
| TTAAAATTATAATACGTACACACCTTATCTTTTTGG [CACACA_site278] | 7.28 |
| GGCGTATGTGTATATACACACCCACGTATATATATA [CACACA_site9046] | 8.1 |
| TGTTGTTTTATGTTGTATTGTAATATATTATATTAT [XGTACX_negctrl_site46] | 7.48 |
| ATATATAACGGGCACACACACATTTACGTATGAATA [CACACA_site1833] | 7.39 |
| TTAGGATTGAAGAGTTGTACATACCTCTTATTTGTT [XGTACX_site1376] | 6.89 |
| ATCATATATTATTTATGTACTTATTTATAATAATAT [XGTACX_site8257] | 7.06 |
| TATAAAATGTAATCTGAACACACATATTTTTTTAAT [CACACA_site8521] | 6.72 |
| GGAAAATATGTTTGTGTGCACAGCTAGCTATTTGTA [GTGCAC_site9637] | 8.41 |
| CACCCACACCAACACACACACATATATATATATATA [CACACA_site362] | 9.74 |
| AAATAAATTGATTCAACACACACATATGTAGGAAGT [CACACA_site9068] | 7.09 |
| TTTTTTTTTTTCAAGCGTACAAAAAATATATTTAAA [XGTACX_site5327] | 7.11 |
| AATTTTTTTTGTCTCTGTACTTATAAAATATATATG [XGTACX_site4742] | 6.96 |
| AAAAAAAATTTTAATTGTACAAAAAAAAAAAATATA [XGTACX_site2259] | 6.82 |
| TATATATGGGTAACCTTTTTTTTTTTTTTTCGAACA [CACACA_negctrl_site1303] | 6.8 |
| AAATAACAAATTTTTAAAATGTATATATATATATAT [TGCATGCA_negctrl_site219] | 9.11 |

| Sequence | gcPBM binding intensity (ln) |
| --- | --- |
| ATTCATAATTTATTATGTACATATATATAATATATT [XGTACX_site1711] | 6.93 |
| TAAAACCTTTAAAATACATGCAGCATATATAAGTAA [TGCATGCA_site181] | 6.69 |
| AAGGATATAACATACACACACACACCCATATATATA [CACACA_site4142] | 7.85 |
| TGCAATTTAATATGAGTGCATATATTGAGAAAATAC | 8.9 |
| AAAGAAATTATTTGTTGTACATATGTTATTTTTTTT [XGTACX_site7570] | 6.93 |
| AATAAATTGGTATGTTGTACAAAGTAACCATCGATT [XGTACX_site2823] | 6.93 |
| ATATCATGTTAAGATTGTACATATATATAATATATA [XGTACX_site7626] | 7.31 |
| TTAAAATATGAATAATGTACAAGAAATTTTATTAAT [XGTACX_site6314] | 6.93 |
| ATTATTACATTTTTATGTACATATCAAATTTATACA [XGTACX_site7332] | 7.09 |
| TTAACTTAAGGAGAGTGTACAAATAATAAAATATCT [XGTACX_site4118] | 7.17 |
| ATATTTTTTACAAATTGTACATTTTTACAATTATTA [XGTACX_site7496] | 6.99 |
| TAACCTAAAATAACTACACACACATAAAAAAAAAAA [CACACA_site8807] | 6.89 |
| TATAAATTAAAATGTGTGCACTAAATTGAAATAGAA | 10.7 |
| ATATATATATATAATAGTACATATATTTTTATTGGT [XGTACX_site711] | 9.08 |
| TCACTTAATATTTAATGTACATAAGGTTCTTGTGCC [XGTACX_site1822] | 7.13 |
| TTATATAACATTATTTGTACATATAAAATATGGATG [XGTACX_site8526] | 7.17 |
| AAAAAAAATTTATGGGGTACATATTATAATATTATA [XGTACX_site3395] | 7.38 |
| GTTTTCATCCAAAAAAGTACATTTATTTTTATACGA [XGTACX_site1039] | 7.27 |
| GTAGTGGTTGAATATACACACATATATAAATAAATA [CACACA_site7282] | 7 |
| ATGTATGAATTACATAGTACATAAGAAAAAATGAAG [XGTACX_site5942] | 7.45 |
